# Test results: the RNAGym collection of RNA variant scans (doi:10.1093/nar/gkz1192)
# Read counts are not given, so values of variants with three or more changes are uncertain.
# B1: CPEB3 Ribozyme (parent)
# chain: UAACAGGGGGCCACAGCAGAAGCGUUCACGUCGCAGCCCCUGUCAGAUUCUGGUGAAUCUGCGAAUUCUGCUGUAUAUCUC
# Variants of: B1
# Test: self-cleavage, relative activity (ratio to wild type); higher = more cleavage; in vitro, sequencing
# Outline: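 Libraries of CPEB3 self-cleaving ribozyme mutants came from rounds of error-prone PCR and carried barcodes, which DNA sequencing matched to variants. In vitro transcription used T7 RNA polymerase at 37°C for 5 hours, with a further 15 min in DNase I before EDTA stopped the reaction; the ribozymes cleaved during both steps. The RNA was reverse transcribed with template switching and sequenced on Illumina. Relative activity is the cleaved/total read fraction of a variant divided by that of the unmutated ribozyme, averaged over three batches with at least 5 reads.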
row,Variant,self-cleavage
1,UAACAGGGGGCCACAGCAGGAGCGUUCACGUCGCAGCCCCUGUCAGAUUCUAGUGAAUCUGCGAAUUCUGCUGUAUAUCCC,1.01
2,UAACAGGGGGCCACAGCAGGAGCGUUCACGUCGCAGCCCCUGUCAGAUUCUGAUGAAUUUGCGAAUUCUGCUGUAUAUCUA,0.86
3,UAACAGGGGGCCACAGCAGGAGCGAUCACGUCGCAGCCCCCGUCAGAUUCAGGUGAAUCUGCGUAUUCUGCUGUAUAUCUC,0.09
4,UAACAGGGGGCCACAGCAGGAGCGAUCACGUCGCAGCCCCUGUCAGAUUCUGGUGUAUCUGCGAAUUCUGCUGUAUAUCUC,0.45
5,UAACAGGGGGCCACAGCAGGAGCGCUCUCGUCGCAGCCCCUGUCAGAUCCUGGUGAAUCUGCGAAUUCUGCUGUAUAUCUC,0.17
6,UAACAGGGGGCCACAGCAGGAGCGAUCACGUCGCAGCCCCUGUCAGAUGCUGGUGAGCCUGCGAAUACUGCUGUAUAUCUC,0.05
7,UAACAGGGGGCCACAGCAGGAGCGUUCACGUCGCAGCCCCUGUCAAAUUCUGGUGAAUCUGCGAAUUCUGCUGUAUAGCUC,0.23
8,UAACAGGGGGCCACAGCAGGAGCGAUCACGUCGCAGCCCCUGCCGGAUACUGGUGAACCUGCGAAUUCUGCUGUAUACCUC,0.1
9,UAACAGGGGGCCACAGCAGGAGCGUUCACGUCGCAGCCCCUGUCAGAUUCUGGUGAAUCUGCAAUUCCUGCUGUAUAUCUC,0.49
10,UAACAGGGGGCCACAGCAGGAGCGUUCACGUCGCAGCCCCUGUCAGAUUCUGGUGAAUCUGCUAAUUCUGCUGAAUAUCUC,1.16
11,UAACAGGGGGCCACAGCAGGAGCGAUCACGCCGCAGCCCCUGUCAGAUUCUGGUGAGUCUGCGAAUUCUGCUGUAUAUCUC,0.08
12,UAACAGGGGGCCACAGCAGGAGCGAUCACGUCGCAGCCCCAGUCAGAUUCUGGAGAAUCUGUGGAUUCUCCUGUAUAUCUC,0.06
13,UAACAGGGGGCCACAGCAGGAGCGUUCACGUCGCAGCCCCUGUCAGAUUCUGGUAAAUCCGCGAAUUCUGCUGUAUUUCUC,0.1
14,UAACAGGGGGCCACAGCAGGAGCGUUCACGUCGCAGCCCCUGUCAUAAUCUGGUGAAUCCGCGAAUUCUGCUGUAUAUCUC,0.1
15,UAACAGGGGGCCACAGCAGGAGCGAUCACGUCGCUGCCCCUGUCAGAUUCUGGUGAAUCUGCGAAUUCUGCUGUAUAUCUC,0.27
16,UAACAGGGGGCCACAGCAGGAGCGCUCGCGUCGCAGCCCCUGUCAGAUUCUGGUGAAUCUGCGAAUUCAGCUGUAUAUCUC,0.04
17,UAACAGGGGGCCACAGCAGGAGCGUUCACGUCGCAGCCCCUGUCAGAUUCUGGUGAAUCUGCAAAUUCUGCCGUAUAUCUC,0.81

row,Variant,self-cleavage
1,UAACAGGGGGCCACAGCAGGAGCGACCACGUCGCAGCCCCUGUCAGAUUCUGGUGAGUCUGCGAGUCCUGCUGUAUACCUC,0.14
2,UAACAGGGGGCCACAGCAGGAGCGUUCACGUCGCAGCCCCUGUCAGAUUCUGUUGAAUCUGCGAAUUCUGCCGUAUAUCUC,0.71
3,UAACAGGGGGCCACAGCAGGAGCGAUCACGUCGCAGCCCCUGUCAGAUUCUGGUGAAUCUGCGAAUUCUGCCGUAUAUCUC,0.31
4,UAACAGGGGGCCACAGCAGGAGCGUUCACGUCGCAGCCCCUGUCAGAUUCUUGUGAAUCUGCGAAUCCUGCUGUAUACCUC,0.91
5,UAACAGGGGGCCACAGCAGGAGCGUUCACGUCGCAGCCCCUGUCAGAUUCUGGUGAAUCUGCAAAUUCAGCUGUAUAUCUC,0.29
6,UAACAGGGGGCCACAGCAGGAGCGUUCACGUCGCAGCCCCUGUCAGAUUCUGGUGAAUCUGCAAAUUCUGCUGUACAUCAC,0.82
7,UAACAGGGGGCCACAGCAGGAGCGUUCACGUCGCAGCCCCUGUCAGAUUCUUGUGAAUCUGCGGAUUCUGCUGUAUAUCUC,0.63
8,UAACAGGGGGCCACAGCAGGAGCGAUCACGUCGCAGCCCCUGCCAGAUUCUGGUGGAUCUGCGAAUUCAGCUGUAUAUCUC,0.06
9,UAACAGGGGGCCACAGCAGGAGCGAUCACGUCUCAGCCCCUGUCAGAUUCUGGUGAAUCUGCGAAUUCUGCUGUAUAUCUC,0.07
10,UAACAGGGGGCCACAGCAGGAGCGAUCACGUCGCAGCCCCUGUCAGAUUCUGGUGAAUCUGCGAAUUCUGCUGUAUACCUC,0.22
11,UAACAGGGGGCCACAGCAGGAGCGUUCACGUCGCAGCCCCUGUCAGAUUCUAGUGAAUCUGCGAAUUCCGCUGUAUAUCUC,0.65
12,UAACAGGGGGCCACAGCAGGAGCGUUCACGUCGCAGCCCCUGUCAUAUUCUGGCGAAUCUGCGAAUUCUGCCGUAUAUCAC,0.1
13,UAACAGGGGGCCACAGCAGGAGCGCUCACGUCGCCGCCCCUGUCAGAUUCUGGUGAAUCUGCGAAUUCUGCUGUAUACCUC,0.34
14,UAACAGGGGGCCACAGCAGGAGCGAUCACGUCGCGCCCCCUGACAGAUUCUGGUGAAUCUGCGAAUUCUGCUGUAUAUCUC,0.25
15,UAACAGGGGGCCACAGCAGGAGCGCUCACGUCGCGGCCCCUGUCAGAUUCUGGUGAAUCUGCGAAUUCUGCUGUAUAUCUC,0.39
16,UAACAGGGGGCCACAGCAGGAGCGAUCACGUCGCAGCCCCUGUCAGAUUCUGGUGAAUCUGCGAAUCCUGCUGUAUAUCUC,0.35
17,UAACAGGGGGCCACAGCAGGAGCGUUCACGUCGCAGCCCCUGUCAGAUUCUGCUGAAUCUGCGAAUUCUGCUGAAUAUCUC,0.47
